Like-named read-outs stand apart in the source and are kept apart here. Entries with a single value are a further part of the results.
Q: With `O=C1NC(=O)C(CCOc2ccccc2)S1` (centres unmarked) (hydrate or solvate) [Compound 1, 5-(2-phenoxyethyl)-2,4-thiazolidinedione] as the compound, how does the melting point (anhydrous form) read?
A: 81 to 83 °C

Q: What about the melting point (hemihydrate) of the same compound?
A: 105 to 107 °C

Reference: patent publication US6437143B1, “Thiazolidone-2 derivatives, 4-diketone substituted, method for obtaining them and pharmaceutical compositions containing same” (Merck Patent Gesellschaft mit beschrankter Haftung, priority 1996, dated 2002)
